Reference: the supplement of paper PMC3334620
Whole data set: some 33,000 sequences, median “E-score (-0.5 to 0.5)” near -0.041, cut for the highest 2% near 0.37. The list shows a part of the results.

biological target: T1, Ecm22 (UniProt Q05958); test: PBM E-score (8-mer binding enrichment) (E-score (-0.5 to 0.5)); higher = stronger / more preferred TF binding; most listed sequences are background and not binding sites; settings: protein concentration: 200 nM; construct: GST-full length
T1 sequence: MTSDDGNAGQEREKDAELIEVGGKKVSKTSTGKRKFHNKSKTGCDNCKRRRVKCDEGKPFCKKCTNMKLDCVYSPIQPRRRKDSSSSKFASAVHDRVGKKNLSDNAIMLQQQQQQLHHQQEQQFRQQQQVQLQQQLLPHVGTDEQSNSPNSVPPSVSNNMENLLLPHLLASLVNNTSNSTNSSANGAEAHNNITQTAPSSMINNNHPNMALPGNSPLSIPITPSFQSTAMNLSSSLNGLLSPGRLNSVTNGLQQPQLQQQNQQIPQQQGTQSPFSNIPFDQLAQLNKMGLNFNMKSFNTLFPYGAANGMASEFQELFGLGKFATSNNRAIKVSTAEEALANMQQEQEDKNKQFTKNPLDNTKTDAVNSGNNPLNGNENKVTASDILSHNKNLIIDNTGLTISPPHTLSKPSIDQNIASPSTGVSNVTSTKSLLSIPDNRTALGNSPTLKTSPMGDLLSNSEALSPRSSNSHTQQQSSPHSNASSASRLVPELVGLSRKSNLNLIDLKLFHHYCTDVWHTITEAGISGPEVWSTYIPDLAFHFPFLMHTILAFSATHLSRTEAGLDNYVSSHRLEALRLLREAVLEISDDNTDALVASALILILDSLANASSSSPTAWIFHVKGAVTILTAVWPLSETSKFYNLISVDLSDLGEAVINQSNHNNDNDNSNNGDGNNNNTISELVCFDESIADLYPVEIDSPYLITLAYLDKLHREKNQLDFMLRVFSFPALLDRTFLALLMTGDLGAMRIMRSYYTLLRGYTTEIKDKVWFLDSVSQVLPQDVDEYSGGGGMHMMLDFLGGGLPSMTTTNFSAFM
How it was run: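 Masliner-normalised scans of fluorescent anti-GST signal were the basis for scoring. That signal came from GST-tagged yeast transcription factors applied at about 100-200 nM to double-stranded universal all-10-mer Agilent arrays on fresh or once-stripped slides. Each ungapped eight-base word, pooled with its reverse complement, received an E-score from the Universal PBM Analysis Suite.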

Sequence | PBM E-score
ACCCATGC | -0.268
AGACACCG | -0.117
GGTGGTAC | 0.0773
TATTTCGA | 0.161
AACCAACG | -0.25
GATGGAGA | -0.088
CCTCCCTA | -0.0494
CTCAGCTC | -0.0614
ATGACAGC | -0.209
GAGGAAGC | 0.0341
CTCTACCC | 0.0803
CTCGATCC | 0.188
CTTTAAGC | -0.0727
ACGGGGCC | 0.154
AATACTAG | 0.0461
CGACCAAC | 0.118
GGGAACAC | 0.0114
AAGATCTC | -0.0385
AAGTCACT | -0.0396
CACACGTC | -0.127
ACTCCCGG | -0.205
CAGATGTC | 0.149
AACGGAGC | 0.121
GGCTGCCA | -0.229
CCCCGTAC | 0.377

Sequence | PBM E-score
CACATTAG | -0.0892
ATTGCTAA | 0.0762
CGGAACTA | 0.124
AGACGACT | 0.065
GGATATCC | -0.031
GAATATCC | 0.0663
GATCCGCC | 0.00521
AGGGAGGA | -0.0641
ACTGTGGA | -0.242
ATTCCCTG | -0.159
GTCGAGCA | -0.113
CGCCTGAC | -0.0755
AGCAGTAG | -0.212
CCGCCTAG | -0.193
AATGGTCC | 0.013
GTAGCTAC | 0.044
AGACCAGA | -0.168
AAGCGCAA | 0.113
ATGGAGTC | -0.195
GAACTGCC | -0.0587
GACCGATA | 0.189
ATCTGCGA | -0.0287
CCCGATCG | 0.166
ACGCAACT | 0.0219
CTTGGATC | -0.127

Sequence | PBM E-score
CGGTGGAA | 0.105
AACTTAAG | -0.187
CAAGTCAG | -0.133
GAAGATAA | 0.0689
AGGGAAAG | -0.0887
CATCTGGA | -0.101
CCTTCGAG | -0.0778
GATTTTTA | 0.0232
CCGGCGTA | 0.21
GATAGCCC | -0.241
AACGTGCA | -0.044
AGCACTAG | 0.0733
GTTCATCA | -0.012
GCAGATAC | 0.00328
CTGATATA | 0.106
CTGCGAAA | -0.0747
ACGACTCT | 0.308
CGATCACC | 0.0902
CTGTAGTA | 0.102
AGCTGACT | 0.0435
CCGGGTAA | 0.0464
GACTACCA | -0.0433
CGAGCCCC | 0.0842
GAGGCTGC | -0.14
CGATACCA | 0.179

Sequence | PBM E-score
CCAATAGA | -0.143
AACCGTGC | 0.0493
ACATTCTA | 0.0106
CTGACTAA | -0.285
CGGTAGCC | -0.0334
GGGTATAA | -0.0376
CTGTATCA | -0.193
GAAGAATC | -0.165
CAGTTCGA | -0.0221
CACTCTGA | -0.0911
AGTGGGAA | -0.0286
ATTGTTGG | -0.138
ACCGAAAA | 0.257
ATATAGGC | -0.00233
CAACAAGC | -0.0456
AACCTTAA | -0.112
GGGTGCTA | -0.19
GGGGCTAA | -0.239
TGATTTAA | -0.0513
GCAATTGC | -0.0494
AAAGTCTC | -0.145
ACAGCGAG | 0.0583
CCACGTGA | -0.244
ATTTGGAG | -0.118
GAGACGTA | 0.0975

Sequence | PBM E-score
ACCCTATC | -0.114
TCTGAGCA | -0.139
CCTATTTC | -0.187
CGTACTCC | 0.312
CCTGTATA | 0.0427
ACATTAAA | 0.0976
AGTCATAT | -0.0883
ACCGATCG | 0.199
AAGCTTAG | -0.144
CGACAGGA | 0.131
AGTGCTAA | -0.0946
TACCTCCA | 0.0539
ACACTACC | -0.0934
GTCAGCCA | -0.171
AGGGATTG | -0.0547
GCGCGGTA | 0.113
CAACCCTG | -0.0755
ACCTACGT | 0.077
GGGACTTA | 0.0457
CTACGAAG | 0.297
ATCGCACA | 0.239
CATGCACA | -0.0752
GCGCATGA | -0.219
AACGTGGG | -0.133
AGCATCCG | 0.0405

Sequence | PBM E-score
ATGCTCTG | -0.321
CCTCTCGA | -0.246
CAATGTTC | -0.0481
GGATTGTA | 0.114
ACGGCGCC | 0.173
AATGACTC | -0.159
CCCCTGCA | -0.294
GACATCAC | 0.151
CAGTGGGC | -0.21
CAATGGCC | -0.222
CGGGTGCA | -0.0911
GTAACTAA | 0.0756
ATACATTC | -0.0026
CTAGGCAA | -0.254
ACAAGAGA | 0.0445
AATGACAG | 0.00025
GACTTGCC | -0.172
CTCTGTCC | -0.0843
CATCACGA | 0.0621
AGCCCGGA | -0.0669
CATATTGA | -0.0221
CATTGGAG | -0.0924
CAAACGCA | 0.103
CGGTGCTA | 0.11
CATCTAAC | -0.123

Sequence | PBM E-score
CCATGTCC | -0.138
CTGGGTCC | -0.0699
AATGTCGT | 0.329
CGAACGTA | 0.214
GGCCGCAA | -0.0973
ACGGACCC | 0.192
ACGTAAAT | 0.184
AGAGACAC | -0.0701
AGAAAACT | -0.258
GCGAACCC | 0.2
CGTTAGAA | 0.202
ACTTCCTA | -0.201
ACACTAAA | 0.0483
AGCGCGTC | -0.167
GCAGCACC | -0.24
ATCGGGGC | -0.0374
ACCAAGGA | -0.105
ACTCTCCC | -0.121
AATAGACT | -0.181
ATAACCCC | -0.163
CAGTACTA | -0.00071
CCGTGTAC | 0.228
ATCAGTTG | -0.0582
GATCTTGC | -0.103
CGACCAGA | 0.0404

Sequence | PBM E-score
CTTCCATC | -0.131
GAGCGATC | 0.114
TCGGCAAA | 0.0303
ATCGCACG | -0.187
GACATAGC | -0.227
AAGCGCGA | 0.0135
ACCAGGAG | -0.184
ACAAGACC | -0.205
AAGTAGAA | -0.158
CTCGAAGC | -0.123
CGAAATAG | 0.0481
AGAGGTAC | -0.0703
TCTGCGCA | -0.00535
CTCATAAG | -0.0586
GGAACGAC | 0.491
GACGAAGC | 0.0937
CGTCCGAC | 0.087
CATCCCCC | -0.207
ATATAGTA | 0.0796
CTAATAGA | 0.0918
GCCGCGAA | -0.0751
ACATGAGT | -0.174
GATTTTAC | 0.102
ACTTGAGC | -0.159
AATTCCTC | -0.0283

Sequence | PBM E-score
CCTATATC | -0.0867
GTCGTGGA | -0.2
GAGTATGA | 0.189
ACTATTGA | -0.0675
TCCGATAA | -0.00671
AGTGGATA | -0.0314
GACGGATA | -0.00582
ATCGCTTA | 0.327
CGGGGGAG | -0.222
TGCACTAA | 0.105
AGCACATC | -0.115
AGATTCGG | -0.033
CGCACTAC | -0.0495
CCAGCTTC | 0.144
CCCCTACG | -0.202
CACGGTAG | -0.159
CAAGGATA | -0.1
ACCACTTG | -0.0461
GTCGTTAA | 0.427
